# From patent publication US20250145680A1 (REMD BIOTHERAPEUTICS, published 2025)
# T1: Type I IFN receptor (IFNAR) (UniProt P17181 28-557; P48551 27-515, limits assumed)
# T1 sequence (looked up) 1: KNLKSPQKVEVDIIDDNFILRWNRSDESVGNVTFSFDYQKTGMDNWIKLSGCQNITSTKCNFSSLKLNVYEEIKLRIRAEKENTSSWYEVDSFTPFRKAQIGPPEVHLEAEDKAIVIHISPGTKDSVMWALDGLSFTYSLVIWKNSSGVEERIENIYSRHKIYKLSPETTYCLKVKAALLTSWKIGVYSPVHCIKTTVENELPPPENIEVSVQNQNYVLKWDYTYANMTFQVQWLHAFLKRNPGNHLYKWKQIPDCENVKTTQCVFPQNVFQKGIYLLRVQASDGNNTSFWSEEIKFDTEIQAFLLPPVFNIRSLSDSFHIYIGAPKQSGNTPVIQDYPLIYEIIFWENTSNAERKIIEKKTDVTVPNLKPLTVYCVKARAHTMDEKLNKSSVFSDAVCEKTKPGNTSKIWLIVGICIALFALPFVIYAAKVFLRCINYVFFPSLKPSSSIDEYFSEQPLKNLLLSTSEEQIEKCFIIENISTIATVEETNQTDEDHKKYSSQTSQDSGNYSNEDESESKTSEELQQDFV
# T1 sequence (looked up) 2: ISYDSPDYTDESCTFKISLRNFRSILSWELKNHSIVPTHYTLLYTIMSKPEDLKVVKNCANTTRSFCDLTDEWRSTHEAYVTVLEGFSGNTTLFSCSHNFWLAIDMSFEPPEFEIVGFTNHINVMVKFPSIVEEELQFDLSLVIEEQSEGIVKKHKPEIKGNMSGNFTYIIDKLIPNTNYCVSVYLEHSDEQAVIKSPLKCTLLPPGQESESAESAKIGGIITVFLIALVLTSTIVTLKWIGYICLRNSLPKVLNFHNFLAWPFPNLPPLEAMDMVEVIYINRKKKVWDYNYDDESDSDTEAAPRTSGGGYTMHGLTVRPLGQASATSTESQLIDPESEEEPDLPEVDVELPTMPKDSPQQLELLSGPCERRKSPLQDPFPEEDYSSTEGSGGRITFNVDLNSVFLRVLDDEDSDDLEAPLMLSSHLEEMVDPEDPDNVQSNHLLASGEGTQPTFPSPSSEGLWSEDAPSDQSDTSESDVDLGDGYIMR
# Biological target: T1, Type I IFN receptor (IFNAR)
# Assay: cell-based or functional assay
row,"EC50 ratio1 (EC50 of FP/EC50 of IFN-α2b) on PD-L1-negative cells; IFN-α reporter assay (SEAP), PD-L1 blocked with REMD290 [fold]",Binder
1,11.8,anti-PD-L1 Ab-con-IFN-α fusion molecule (FP-06) (other) light: DIQMTQSPSSVSASVGDRVTITCKTSQDVNTAVAWYQQKPGQAPRLLIYWASTRHTGVPDRFSGSGSGTDFTLTISSLQAEDVAVYYCQQHYNTPLTFGGGTKLEIKRTVAAPSVFIFPPSDEQLKSGTASVVCLLNNFYPREAKVQWKVDNALQSGNSQESVTEQDSKDSTYSLSSTLTLSKADYEKHKVYACEVTHQGLSSPVTKSFNRGEC heavy: QMQLVQSGAEVKKTGSSVKVSCKASGYTFTSYSINWVRQAPGKGLEWVAYFYVGNGYTDYNEKFKGRVTMTRDTSTSTVYMELSSLRSEDTAVYYCARGGLPYYFDYWGQGTLVTVSSASTKGPSVFPLAPCSRSTSESTAALGCLVKDYFPEPVTVSWNSGALTSGVHTFPAVLQSSGLYSLSSVVTVPSSSLGTKTYTCNVDHKPSNTKVDKRV[human IgG4 Fc with S228P (EU numbers) not printed]CDLPQTHSLGNRRALILLAQMRRISPFSCLKDRHDFGFPQEEFDGNQFQKAQAISVLHEMIQQTFNLFSTKDSSAAWDESLLEKFYTELYQQLNDLEACVIQEVGVEETPLMNVDSILAVKKYFQRITLYLTEKKYSPCAWEVVRAEIMRSFSLSTNLQERLRRKE
2,1440,"anti-PD-L1 Ab-con-IFN-α fusion molecule (FP-15), con-IFN-α (R150A), (G4S)x3 linker (other) light: DIQMTQSPSSVSASVGDRVTITCKTSQDVNTAVAWYQQKPGQAPRLLIYWASTRHTGVPDRFSGSGSGTDFTLTISSLQAEDVAVYYCQQHYNTPLTFGGGTKLEIKRTVAAPSVFIFPPSDEQLKSGTASVVCLLNNFYPREAKVQWKVDNALQSGNSQESVTEQDSKDSTYSLSSTLTLSKADYEKHKVYACEVTHQGLSSPVTKSFNRGEC heavy: QMQLVQSGAEVKKTGSSVKVSCKASGYTFTSYSINWVRQAPGKGLEWVAYFYVGNGYTDYNEKFKGRVTMTRDTSTSTVYMELSSLRSEDTAVYYCARGGLPYYFDYWGQGTLVTVSSASTKGPSVFPLAPCSRSTSESTAALGCLVKDYFPEPVTVSWNSGALTSGVHTFPAVLQSSGLYSLSSVVTVPSSSLGTKTYTCNVDHKPSNTKVDKRV[human IgG4 Fc with S228P (EU numbers) not printed]GGGGSGGGGSGGGGSCDLPQTHSLGNRRALILLAQMRRISPFSCLKDRHDFGFPQEEFDGNQFQKAQAISVLHEMIQQTFNLFSTKDSSAAWDESLLEKFYTELYQQLNDLEACVIQEVGVEETPLMNVDSILAVKKYFQRITLYLTEKKYSPCAWEVVRAEIMASFSLSTNLQERLRRKE"
3,15,"anti-PD-L1 Ab-con-IFN-α fusion molecule (FP-17), con-IFN-α (A146D), (G4S)x3 linker (other) light: DIQMTQSPSSVSASVGDRVTITCKTSQDVNTAVAWYQQKPGQAPRLLIYWASTRHTGVPDRFSGSGSGTDFTLTISSLQAEDVAVYYCQQHYNTPLTFGGGTKLEIKRTVAAPSVFIFPPSDEQLKSGTASVVCLLNNFYPREAKVQWKVDNALQSGNSQESVTEQDSKDSTYSLSSTLTLSKADYEKHKVYACEVTHQGLSSPVTKSFNRGEC heavy: QMQLVQSGAEVKKTGSSVKVSCKASGYTFTSYSINWVRQAPGKGLEWVAYFYVGNGYTDYNEKFKGRVTMTRDTSTSTVYMELSSLRSEDTAVYYCARGGLPYYFDYWGQGTLVTVSSASTKGPSVFPLAPCSRSTSESTAALGCLVKDYFPEPVTVSWNSGALTSGVHTFPAVLQSSGLYSLSSVVTVPSSSLGTKTYTCNVDHKPSNTKVDKRV[human IgG4 Fc with S228P (EU numbers) not printed]GGGGSGGGGSGGGGSCDLPQTHSLGNRRALILLAQMRRISPFSCLKDRHDFGFPQEEFDGNQFQKAQAISVLHEMIQQTFNLFSTKDSSAAWDESLLEKFYTELYQQLNDLEACVIQEVGVEETPLMNVDSILAVKKYFQRITLYLTEKKYSPCAWEVVRDEIMRSFSLSTNLQERLRRKE"

# More lines, now with the values behind:
row,Binder,"EC50 ratio1 (EC50 of FP/EC50 of IFN-α2b) on PD-L1-negative cells; IFN-α reporter assay (SEAP), PD-L1 blocked with REMD290 [fold]"
1,"anti-PD-L1 Ab-con-IFN-α fusion molecule (FP-14), con-IFN-α (R150A), G8 linker (other) light: DIQMTQSPSSVSASVGDRVTITCKTSQDVNTAVAWYQQKPGQAPRLLIYWASTRHTGVPDRFSGSGSGTDFTLTISSLQAEDVAVYYCQQHYNTPLTFGGGTKLEIKRTVAAPSVFIFPPSDEQLKSGTASVVCLLNNFYPREAKVQWKVDNALQSGNSQESVTEQDSKDSTYSLSSTLTLSKADYEKHKVYACEVTHQGLSSPVTKSFNRGEC heavy: QMQLVQSGAEVKKTGSSVKVSCKASGYTFTSYSINWVRQAPGKGLEWVAYFYVGNGYTDYNEKFKGRVTMTRDTSTSTVYMELSSLRSEDTAVYYCARGGLPYYFDYWGQGTLVTVSSASTKGPSVFPLAPCSRSTSESTAALGCLVKDYFPEPVTVSWNSGALTSGVHTFPAVLQSSGLYSLSSVVTVPSSSLGTKTYTCNVDHKPSNTKVDKRV[human IgG4 Fc with S228P (EU numbers) not printed]GGGGGGGGCDLPQTHSLGNRRALILLAQMRRISPFSCLKDRHDFGFPQEEFDGNQFQKAQAISVLHEMIQQTFNLFSTKDSSAAWDESLLEKFYTELYQQLNDLEACVIQEVGVEETPLMNVDSILAVKKYFQRITLYLTEKKYSPCAWEVVRAEIMASFSLSTNLQERLRRKE",1580
2,"anti-PD-L1 Ab-con-IFN-α fusion molecule (FP-18), con-IFN-α (A146D and R150A), G8 linker (other) light: DIQMTQSPSSVSASVGDRVTITCKTSQDVNTAVAWYQQKPGQAPRLLIYWASTRHTGVPDRFSGSGSGTDFTLTISSLQAEDVAVYYCQQHYNTPLTFGGGTKLEIKRTVAAPSVFIFPPSDEQLKSGTASVVCLLNNFYPREAKVQWKVDNALQSGNSQESVTEQDSKDSTYSLSSTLTLSKADYEKHKVYACEVTHQGLSSPVTKSFNRGEC heavy: QMQLVQSGAEVKKTGSSVKVSCKASGYTFTSYSINWVRQAPGKGLEWVAYFYVGNGYTDYNEKFKGRVTMTRDTSTSTVYMELSSLRSEDTAVYYCARGGLPYYFDYWGQGTLVTVSSASTKGPSVFPLAPCSRSTSESTAALGCLVKDYFPEPVTVSWNSGALTSGVHTFPAVLQSSGLYSLSSVVTVPSSSLGTKTYTCNVDHKPSNTKVDKRV[human IgG4 Fc with S228P (EU numbers) not printed]GGGGGGGGCDLPQTHSLGNRRALILLAQMRRISPFSCLKDRHDFGFPQEEFDGNQFQKAQAISVLHEMIQQTFNLFSTKDSSAAWDESLLEKFYTELYQQLNDLEACVIQEVGVEETPLMNVDSILAVKKYFQRITLYLTEKKYSPCAWEVVRDEIMASFSLSTNLQERLRRKE",16100
3,"anti-PD-L1 Ab-con-IFN-α fusion molecule (FP-16), con-IFN-α (A146D), G8 linker (other) light: DIQMTQSPSSVSASVGDRVTITCKTSQDVNTAVAWYQQKPGQAPRLLIYWASTRHTGVPDRFSGSGSGTDFTLTISSLQAEDVAVYYCQQHYNTPLTFGGGTKLEIKRTVAAPSVFIFPPSDEQLKSGTASVVCLLNNFYPREAKVQWKVDNALQSGNSQESVTEQDSKDSTYSLSSTLTLSKADYEKHKVYACEVTHQGLSSPVTKSFNRGEC heavy: QMQLVQSGAEVKKTGSSVKVSCKASGYTFTSYSINWVRQAPGKGLEWVAYFYVGNGYTDYNEKFKGRVTMTRDTSTSTVYMELSSLRSEDTAVYYCARGGLPYYFDYWGQGTLVTVSSASTKGPSVFPLAPCSRSTSESTAALGCLVKDYFPEPVTVSWNSGALTSGVHTFPAVLQSSGLYSLSSVVTVPSSSLGTKTYTCNVDHKPSNTKVDKRV[human IgG4 Fc with S228P (EU numbers) not printed]GGGGGGGGCDLPQTHSLGNRRALILLAQMRRISPFSCLKDRHDFGFPQEEFDGNQFQKAQAISVLHEMIQQTFNLFSTKDSSAAWDESLLEKFYTELYQQLNDLEACVIQEVGVEETPLMNVDSILAVKKYFQRITLYLTEKKYSPCAWEVVRDEIMRSFSLSTNLQERLRRKE",37.6
4,anti-PD-L1 Ab-con-IFN-α (R150A) fusion molecule (FP-07) (other) light: DIQMTQSPSSVSASVGDRVTITCKTSQDVNTAVAWYQQKPGQAPRLLIYWASTRHTGVPDRFSGSGSGTDFTLTISSLQAEDVAVYYCQQHYNTPLTFGGGTKLEIKRTVAAPSVFIFPPSDEQLKSGTASVVCLLNNFYPREAKVQWKVDNALQSGNSQESVTEQDSKDSTYSLSSTLTLSKADYEKHKVYACEVTHQGLSSPVTKSFNRGEC heavy: QMQLVQSGAEVKKTGSSVKVSCKASGYTFTSYSINWVRQAPGKGLEWVAYFYVGNGYTDYNEKFKGRVTMTRDTSTSTVYMELSSLRSEDTAVYYCARGGLPYYFDYWGQGTLVTVSSASTKGPSVFPLAPCSRSTSESTAALGCLVKDYFPEPVTVSWNSGALTSGVHTFPAVLQSSGLYSLSSVVTVPSSSLGTKTYTCNVDHKPSNTKVDKRV[human IgG4 Fc with S228P (EU numbers) not printed]CDLPQTHSLGNRRALILLAQMRRISPFSCLKDRHDFGFPQEEFDGNQFQKAQAISVLHEMIQQTFNLFSTKDSSAAWDESLLEKFYTELYQQLNDLEACVIQEVGVEETPLMNVDSILAVKKYFQRITLYLTEKKYSPCAWEVVRAEIMASFSLSTNLQERLRRKE,8440

# Biological target: T1, Type I IFN receptor (IFNAR)
# Assay: cell-based or functional assay
# Remark: another data set of the same source
Binder,EC50 (pM) on PD-L1-negative cells; IFN-α reporter assay; sample stored at 4° C. for 80 days [pM],EC50 (pM) on PD-L1-negative cells; IFN-α reporter assay; sample stored at -80° C. for 80 days [pM]
anti-PD-L1 Ab-con-IFN-α (R150A) fusion molecule (FP-07) (other) light: DIQMTQSPSSVSASVGDRVTITCKTSQDVNTAVAWYQQKPGQAPRLLIYWASTRHTGVPDRFSGSGSGTDFTLTISSLQAEDVAVYYCQQHYNTPLTFGGGTKLEIKRTVAAPSVFIFPPSDEQLKSGTASVVCLLNNFYPREAKVQWKVDNALQSGNSQESVTEQDSKDSTYSLSSTLTLSKADYEKHKVYACEVTHQGLSSPVTKSFNRGEC heavy: QMQLVQSGAEVKKTGSSVKVSCKASGYTFTSYSINWVRQAPGKGLEWVAYFYVGNGYTDYNEKFKGRVTMTRDTSTSTVYMELSSLRSEDTAVYYCARGGLPYYFDYWGQGTLVTVSSASTKGPSVFPLAPCSRSTSESTAALGCLVKDYFPEPVTVSWNSGALTSGVHTFPAVLQSSGLYSLSSVVTVPSSSLGTKTYTCNVDHKPSNTKVDKRV[human IgG4 Fc with S228P (EU numbers) not printed]CDLPQTHSLGNRRALILLAQMRRISPFSCLKDRHDFGFPQEEFDGNQFQKAQAISVLHEMIQQTFNLFSTKDSSAAWDESLLEKFYTELYQQLNDLEACVIQEVGVEETPLMNVDSILAVKKYFQRITLYLTEKKYSPCAWEVVRAEIMASFSLSTNLQERLRRKE,2960,2780
